The shares of active, inactive and inconclusive entries below differ from those in the screen. Potencies beside an inconclusive call are fits to weak or partial responses and may not hold up. Calls of active or inactive are those of the source. Calls follow the shape of the dose curve; as a rule, active = well fitted inhibition curve with a large enough effect; inconclusive = small, poorly fitted or top-dose-only effect; inactive = flat fitted curve, though single readings scatter.
Tested on: HEK293
Assay: Cytotoxic Profiling of Annotated Libraries Using Quantitative High-Throughput Screening (AID 1296008); also: nearly all actives have a fitted effect of over 60% in size
Conditions: Five cell lines viability, CellTiter-Glo ATP luminescence, 48-72 h; max response: active compounds read low
In short: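 Cytotoxicity was measured as CellTiter-Glo ATP luminescence, read after 10 min at room temperature. Compound treatment of the cells lasted 48 or 72 hr at 37 degrees Celsius in a qHTS format.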
% is scaled to controls: 0 for no effect and ±100 for the full control effect; potency is read from the fitted curve at half-maximal effect; tags tell the direction and shape of the fitted curve.

SMILES	Potency	max response	outcome
COc1cc(C[C@@H](C)N)c(OC)cc1Br	inconclusive: 39.7 µM [inhibitor, single point]		
CN(C(=O)C(c1ccccc1)c1ccccc1)[C@H](CN1CC[C@H](O)C1)c1ccccc1	inconclusive: 29.1 µM [inhibitor, single point]		
CN1C[C@H](CNC(=O)OCc2ccccc2)C[C@@H]2c3cccc4c3c(cn4C)C[C@H]21	inconclusive: 23.7 µM [inhibitor, single point]		
CN[C@@H]1C[C@H]2O[C@@](C)([C@@H]1OC)n1c3ccccc3c3c4c(c5c6ccccc6n2c5c31)C(=O)NC4	active: 0.231 µM		
CO/C=C(/C(=O)OC)c1ccccc1Oc1cc(Oc2ccccc2C#N)ncn1	active: 8.63 µM		
C[C@]12CC[C@H]3[C@@H](CCC4=CC(=O)CC[C@@H]43)[C@@H]1CC[C@@H]2OC(=O)CCC1CCCCC1	inconclusive: 16.8 µM [inhibitor, partial curve, poor fit]		
CC(O)(c1ccccc1)C(Cc1ccc(Cl)cc1)n1cncn1 (stereo not given)	inconclusive: 16.4 µM [inhibitor, single point]		
O=C(O)COc1ccccc1		inactive: 2.38%	
C=CCN1CC[C@]23c4c5ccc(O)c4O[C@H]2C(=O)CC[C@@]3(O)[C@H]1C5		inactive: -4.65%	
CC(C(O)c1ccccc1)N(C)C/C=C/c1ccccc1 (stereo not given)		inactive: -9.94%	
CCN1CCCC1CNC(=O)C(O)(c1ccccc1)c1ccccc1 (stereo not given)			inactive
Cc1[nH]c2ccc(Cl)cc2c1CCN(C)C	inconclusive: 29.1 µM [inhibitor, single point]		
CN1C(=O)[C@]23CC4C(C)(C)[C@@]5(C[C@@]41CN2CC[C@@]3(C)O)C(=O)Nc1c5ccc2c1OC=CC(C)(C)O2 (stereo not given in full)	inconclusive: 14.2 µM [inhibitor, single point]		
CN1CN(c2ccccc2)C2(CCN(CCCC(=O)c3ccc(F)cc3)CC2)C1=O	active: 14.6 µM		
CCCCCn1cc(C(=O)Oc2cccc3cccnc23)c2ccccc21	inconclusive: 20.6 µM [inhibitor, single point]		
CS[C@]1(CO)C(=O)N2[C@H]3C(=CC=C[C@@H]3O)C[C@@]2(SC)C(=O)N1C		inactive: -12.6%	
COc1ccc2c(C(=O)c3ccc(Cl)cc3)c(C)n(CC(=O)O)c2c1	inconclusive: 29.9 µM [inhibitor, single point]		
Nc1ncnc2c1ncn2[C@@H]1O[C@@H]2COP(O)(=S)O[C@H]2[C@H]1O (stereo not given in full)			inactive
C/C=C(\C)C(O)C(C)/C=C(C)/C=C/C/C(C)=C/Cc1nc(OC)c(OC)c(O[C@@H]2O[C@@H](C)[C@H](O)[C@@H](O)[C@H]2O)c1C (stereo not given in full)	inconclusive: 0.796 µM [inhibitor, full curve, poor fit]		
COCC(C(=O)OC1CC2CCC(C1)N2C)c1ccccc1 (stereo not given)		inactive: -0.619%	

SMILES	Potency	max response	outcome
C=CC(C)(C)c1[nH]c2c(CC=C(C)C)cc(CC=C(C)C)cc2c1C[C@@H]1NC(=O)[C@H](C)NC1=O		inactive: -8.14%	
O=[N+]([O-])c1c(Cl)c(Cl)cc(Cl)c1Cl		inactive: 4.07%	
C[C@H]1C(=O)O[C@H]2[C@H](O)[C@]34C5OC(=O)[C@]3(O[C@@H]3OC(=O)[C@H](O)C34[C@H](C(C)(C)C)[C@H]5O)C12O (stereo not given in full)		inactive: -8.69%	
C=C[C@H]1CN2CCC1C[C@H]2[C@H](O)c1ccnc2ccccc12 (stereo not given in full)	inconclusive: 16.4 µM [inhibitor, single point]		
COc1ccc2c(c1)c(CCN(C)C)cn2S(=O)(=O)c1ccccc1	inconclusive: 29.1 µM [inhibitor, single point]		
CCOP(=O)(NC(C)C)Oc1ccc(SC)c(C)c1 (stereo not given)	inconclusive: 43.3 µM [inhibitor, single point]		
c1ccc([C@@H]2C[C@H]2NC2CCNCC2)cc1		inactive: -16.2%	
CC(C)(C)C(O)C(Oc1ccc(Cl)cc1)n1cncn1 (stereo not given)	inconclusive: 68.6 µM [inhibitor, single point]		
C[C@@H]1CC[C@H]2[C@@H](C)C(=O)O[C@@H]3O[C@@]4(C)CC[C@H]1[C@]32OO4	active: 1.66 µM		
O=C(OC[C@H]1O[C@@H](Oc2ccc(O)cc2CO)[C@H](O)[C@@H](O)[C@@H]1O)c1ccccc1		inactive: 0.485%	
C[C@]12Cc3nonc3C[C@@H]1CC[C@@H]1[C@@H]2CC[C@@]2(C)[C@H]1CC[C@]2(C)O	inconclusive: 33.5 µM [inhibitor, single point]		
C[C@]12CCC(=O)C=C1CC[C@@H]1[C@@H]2CC[C@]2(C)C(=O)CC[C@@H]12	inconclusive: 29.9 µM [inhibitor, single point]		
COc1cc(CC#N)cc(OC)c1OC		inactive: -3.74%	
CCC1NC(=O)C2C(Cl)C(Cl)CN2C(=O)C(C(C)O)NC(=O)CC(c2ccccc2)NC(=O)C(CO)NC1=O (stereo not given)		inactive: -1.23%	
CCN[C@H](C)Cc1cccc(C(F)(F)F)c1		inconclusive: -33.1% [inhibitor]	
COc1ccc(C(=O)c2c(C)n(CCN3CCOCC3)c3ccccc23)cc1	inconclusive: 33.5 µM [inhibitor, single point]		
CCOC(=O)c1ncn2c1CN(C)C(=O)c1c(I)cccc1-2		inactive: -11.8%	
CCN1C[C@]2(COC(=O)c3ccccc3N3C(=O)C[C@H](C)C3=O)CC[C@H](OC)[C@@]34[C@@H]5C[C@H]6[C@H](OC)[C@@H]5[C@](O)(C[C@@H]6OC)[C@](O)([C@@H](OC)[C@H]23)[C@@H]14		inactive: 2.21%	
C#CC1(O)CCC2C3CCC4=CC(=O)CCC4=C3C=CC21C (stereo not given)	inconclusive: 29.1 µM [inhibitor, single point]		
c1ccc2c(c1)Nc1ccccc1S2	inconclusive: 68.6 µM [inhibitor, single point]		

From PubChem BioAssay (NCATS)
